Experimental data reported in PubChem BioAssay AID360 (National Center for Advancing Translational Sciences (NCATS), 2006).
The whole screen tested about 48,000 compounds, of which about 550 (1.1%) were called active. Roughly 4% stayed inconclusive and do not appear here. Rule as the data show it: active = potency below about 15 µM; inconclusive = mostly about 16 µM to 33 µM; inactive = weaker than that. The list shows a part of the results.

What follows are compounds tested against Lysosomal acid glucosylceramidase (Homo sapiens) (UniProt P04062) (assay: Glucocerebrosidase). Details: purified enzyme, resorufin glucoside fluorescence (screen aimed at inhibitors), 20 min.
Chain of UniProt P04062 (P04062 whole entry, looked up): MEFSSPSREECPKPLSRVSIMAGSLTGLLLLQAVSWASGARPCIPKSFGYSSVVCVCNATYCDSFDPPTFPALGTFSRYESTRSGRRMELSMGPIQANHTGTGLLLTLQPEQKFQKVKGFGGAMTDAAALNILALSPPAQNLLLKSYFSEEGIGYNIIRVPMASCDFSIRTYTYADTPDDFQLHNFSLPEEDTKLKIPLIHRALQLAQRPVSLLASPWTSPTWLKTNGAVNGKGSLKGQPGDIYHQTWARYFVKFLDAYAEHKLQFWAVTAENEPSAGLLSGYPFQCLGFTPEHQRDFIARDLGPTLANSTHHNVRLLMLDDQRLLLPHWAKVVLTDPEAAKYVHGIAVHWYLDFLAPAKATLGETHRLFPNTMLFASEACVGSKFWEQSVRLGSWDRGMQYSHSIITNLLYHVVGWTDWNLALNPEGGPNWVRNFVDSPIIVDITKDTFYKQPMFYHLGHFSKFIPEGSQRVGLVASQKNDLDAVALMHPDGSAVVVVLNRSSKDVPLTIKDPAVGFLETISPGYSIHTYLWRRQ
Method in brief: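 Compounds titrated against 0.2 nM normal enzyme, 30 uM resorufin beta-D-glucopyranoside substrate, citrate/phosphate buffer with taurocholate and tween-20, pH 5.9. Reaction ran 20 min at room temperature; fluorescence (Ex 548/Em 600) gave AC50.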
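Also: the screen sought inhibitors.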
Potency is read from the fitted curve at half-maximal effect.

Potency, inactive:
O=C(C1CCCCC1)N1CCCC(c2nc(-c3ccc(F)cc3)no2)C1 (stereo not given) > 76.9 µM
c1ccc2[nH]c(CN3CCN(c4ncnc5c4oc4ccccc45)CC3)nc2c1 > 76.9 µM
CCN(CC)c1ccc(C2CC(=O)Nc3cc(OC)c(OC)cc32)cc1 (stereo not given) > 76.9 µM
COc1cccc(C=Nc2cccnc2)c1O > 76.9 µM
COCCCNC(=O)Cn1nnc(-c2ccc(NC(=O)c3ccccc3OC)cc2)n1 > 76.9 µM
Cn1nc(-c2ccc(Cl)cc2)c2cc(C(=O)N3CCC(N4CCCCC4)CC3)sc21 > 76.9 µM
O=C1C2C3c4ccccc4C(c4ccccc43)C2C(=O)N1CN1CCOCC1 (stereo not given) > 76.9 µM
Cn1c(=O)[nH]c(=O)c2c1nc1n2CCCN1CCc1ccccc1 > 76.9 µM
Cc1onc(-c2ccccc2Cl)c1-c1nc(-c2ccccn2)no1 > 76.9 µM
CCc1noc(C)c1C(=O)Nc1sc(C(=O)N(C)C)c(C)c1C(=O)OC > 76.9 µM
CSc1ccccc1NC(=O)c1ccoc1C > 76.9 µM
CC(C)(Oc1ccc(Cl)cc1)C(=O)NC1CCSC1=O (stereo not given) > 76.9 µM
O=C(O)CC(NS(=O)(=O)c1ccc(Br)cc1)c1ccco1 (stereo not given) > 76.9 µM
CC1(C)CC(NC(=O)c2ccccc2Cl)CC(C)(C)N1 > 76.9 µM
O=C(c1ccc(Cl)s1)N1CCOCC1 > 76.9 µM
O=C(NCc1ccco1)c1cc2ccc(O)cc2oc1=O > 76.9 µM
CC1CN(C(=O)C2CCCN2S(=O)(=O)c2ccc(Cl)cc2)CC(C)O1 (stereo not given) > 76.9 µM
O=C(Nc1nsc(-c2ccccc2)n1)c1ccncc1 > 76.9 µM
Cc1ccc(CCNC(=O)C2CCN(C(=O)c3sccc3-n3cccc3)CC2)cc1 > 76.9 µM
Cc1ccc(-n2ncc3c(N4CCN(c5ccc(F)cc5)CC4)ncnc32)c(C)c1 > 76.9 µM
CCOC(=O)c1c(NC(=O)Cc2cccs2)sc(C(=O)N2CCCCC2)c1C > 76.9 µM
COc1ccc2c(c1)c1c3n2CCN(C)C3=NCC1 > 76.9 µM
CCCCc1c(O)nc(N2CCN(Cc3ccccc3)CC2)[nH]c1=O > 76.9 µM
CN(C)/C=c1\sc2c(C#N)cc(C(=O)c3ccc(Br)cc3)n2c1=O > 76.9 µM
CCN(CC)C(=O)CSc1nnc(-c2cnccn2)n1-c1ccccc1 > 76.9 µM
